From PubChem BioAssay AID485364 (National Center for Advancing Translational Sciences (NCATS), 2010)
Among all 360,000 compounds or so, about 11,000 (3.1%) were called active. This list was built around the results that the source calls inconclusive (neither active nor inactive); the mix of calls is not that of the screen. Calls follow the shape of the dose curve; as a rule, active = well fitted inhibition curve with a large enough effect; inconclusive = small, poorly fitted or top-dose-only effect; inactive = no such curve, though single readings can be large or run the other way. No potency is given beside an inconclusive call; the fits are too rough.

Biological target: Schistosoma mansoni thioredoxin glutathione reductase (TGR) (UniProt Q962Y6)
Assay: qHTS Assay for the Inhibitors of Schistosoma Mansoni Peroxiredoxins; also: nearly all actives have a fitted effect of over 60% in size
Conditions: purified TGR, DTNB reduction, TNB absorbance 405 nm; activity change, negative = inhibition: at 114 µM (top of the series) unless noted
In short: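 First, TGR (20 nM dispensed) and NADPH were mixed with compound. Second, a 15 min room-temperature incubation followed. Third, further NADPH and then DTNB were added to start the reaction. Finally, TNB absorbance was monitored kinetically.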
% is scaled to controls: 0 for no effect and ±100 for the full control effect; potency is read from the fitted curve at half-maximal effect; tags tell the direction and shape of the fitted curve.

SMILES | activity change, negative = inhibition | Potency
CSc1nc(C)cc(OCCNS(=O)(=O)c2cc(C)ccc2C)n1 | inactive: 2.95% | 
CCC(Sc1nc2c(cnn2-c2ccccc2)c(=O)[nH]1)C(=O)OC (stereo not given) |  | inconclusive [inhibitor, single point]
Cc1ccc(S(=O)(=O)N/N=C\C=C\c2ccccc2)cc1 |  | inconclusive [inhibitor, partial curve]
COCCCNC(=S)N/N=C/c1cccc(OC)c1O |  | inconclusive [inhibitor, partial curve]
O=C1/C(=C/c2c[nH]c3ccccc23)CCC/C1=C\c1c[nH]c2ccccc12 |  | inconclusive [inhibitor, partial curve]
Cc1oc(C)c2c(=O)ccc3c(c12)OC(N)=C(C#N)C3c1ccc(F)cc1 (stereo not given) |  | active: 17.8 µM
Cc1ccc(NC(=O)Cn2c(=O)n(Cc3ccc4c(c3)OCO4)c(=O)c3ccc(C(=O)NC4CCCCC4)cc32)c(C)c1 |  | inconclusive [inhibitor, single point]
CCC(=Cc1ccc(CC)cn1)CC | inactive: -6.4% | 
Cc1ccc(NCCC(=O)c2ccc(Cl)cc2)cc1C |  | inconclusive [inhibitor, single point]
Cc1ccc(Cn2c(=S)[nH]c3ccc(N4CCOCC4)cc3c2=O)o1 |  | inconclusive [inhibitor, partial curve, poor fit]
CCOC(=O)N1CCN(Cc2nc(N)nc(Nc3ccc(OC)cc3)n2)CC1 | inactive: -16% | 
O=C(N/N=C/c1sc(=O)n(-c2ccccc2)c1Cl)c1ccccc1 |  | inconclusive [inhibitor, partial curve]
COC(=O)c1ccc(CC(=O)c2c(C)cc(O)cc2O)o1 |  | active: 22.4 µM
Cc1ccc(CNC(=O)CSc2nc3ccsc3c(=O)n2Cc2ccc(C(=O)O)cc2)cc1 |  | inconclusive [inhibitor, single point]
Cc1ccc2cc(CN(Cc3ccco3)S(=O)(=O)c3c(C)ccc4nsnc34)c(=O)[nH]c2c1 |  | active: 8.91 µM
COCCn1c(C)cc(C(=O)COc2cccnc2[N+](=O)[O-])c1C |  | inconclusive [inhibitor, partial curve]
CCN(c1ccc2c(c1)OCO2)S(=O)(=O)c1cc(Br)cc2c1N(C(C)=O)CC2 |  | inconclusive [inhibitor, single point]
CCCCNC(=O)CS(=O)Cc1nc(-c2cccs2)oc1C (stereo not given) |  | active: 6.31 µM
Cc1occc1C(=O)n1nnc2ccccc21 |  | inconclusive [inhibitor, partial curve]
CC(=O)SC1CC(=O)N(c2ccc(C(C)(C)C)cc2)C1=O (stereo not given) |  | inconclusive [inhibitor, partial curve]
C/C(=N\Nc1ccc(Cl)c(C(=O)O)c1)c1cccc2ccccc12 |  | inconclusive [inhibitor, full curve]
CN(C)S(=O)(=O)c1cccc(NC(=S)Nc2ccc3cn[nH]c3c2)c1 |  | inconclusive [inhibitor, partial curve, poor fit]
CCCCN(C(=O)c1cc2c(s1)CCC2)c1c(N)n(CCCC)c(=O)[nH]c1=O | inactive: -0.278% | 
CCC1CCCCN1CCCNC(=O)Cn1cc2c(n1)-c1c(oc(C(=O)N3CCCC3)c1C)CC2 (stereo not given) |  | inconclusive [inhibitor, partial curve]

SMILES | activity change, negative = inhibition | Potency
O=C(NCC(c1ccco1)N1CCCC1)c1cccc(S(=O)(=O)Nc2ccc(Br)cc2)c1 (stereo not given) |  | inconclusive [inhibitor, partial curve, poor fit]
COc1cccc(-n2c(=O)c3sc4ccccc4c3n(CC(=O)Nc3ccccc3C)c2=O)c1 | inactive: -3.83% | 
CCN(CC)CC(=O)c1c[nH]c2ccc(C)cc12 |  | inconclusive [inhibitor, partial curve]
O=C1CC(SCc2nc3ccccc3[nH]2)C(=O)N1c1cccc(Cl)c1 (stereo not given) |  | inconclusive [inhibitor, partial curve]
COc1ccccc1S(=O)Cc1ccc(C(=O)NCc2ccccc2Cl)o1 (stereo not given) |  | active: 15.8 µM
CC(C)(C)N(Cc1ccccc1)C(=O)COC(=O)c1ccc([N+](=O)[O-])o1 |  | inconclusive [inhibitor, partial curve]
Cc1ccc(C2C3=C(CC(C)(C)CC3=O)NC3=C2C(=O)CC(C)(C)C3)o1 |  | inconclusive [inhibitor, partial curve]
O=C1NC(=O)C(=C/C=C/c2coc3ccc(Br)cc3c2=O)C(=O)N1 |  | active: 0.794 µM
O=C(/C=C/c1ccc2c(c1)OCO2)NCc1ccco1 |  | active: 39.8 µM
COc1ccc(CNC(=O)CS(=O)Cc2nc(-c3ccccc3C)oc2C)cc1 (stereo not given) |  | inconclusive [inhibitor, partial curve]
Cc1ccc(S(=O)(=O)Cc2ccc(C(=O)O)o2)cc1 |  | active: 22.4 µM
CC1CCCC(NC(=S)Nc2ccc(SC(F)F)cc2)C1C (stereo not given) | inactive: 1.07% | 
CC(C)C[C@H](NC(=O)C1CCC(CNC(=O)[C@@H]2CCCN2C(=O)OC(C)(C)C)CC1)C(=O)O (stereo not given in full) |  | inconclusive [inhibitor, full curve, poor fit]
COc1cc(/C=C2/C(=O)c3cccc([N+](=O)[O-])c3C2=O)c(Br)cc1O |  | active: 35.5 µM
COc1cc2c(cc1NC(=O)c1cccc([N+](=O)[O-])c1)oc1ccccc12 | inactive: 3.79% | 
COc1ccc(N(CC(=O)NCCSCc2ccco2)S(=O)(=O)c2ccccc2)cc1 |  | inconclusive [inhibitor, full curve]
COC(=O)c1ccccc1N/C=C1\CCc2c(c(C)nn2-c2ccccn2)C1=O |  | inconclusive [inhibitor, single point]
CN(CC(=O)Nc1cccc(F)c1)C(=O)c1cccnc1Sc1ccccc1Cl | inactive: 0.554% | 
C(=N/n1c2ccccc2c2ccccc21)/c1ccco1 |  | inconclusive [inhibitor, partial curve]
O=C(c1cccc(F)c1)N1CCN(C(=O)c2cc(-c3ccc(Cl)cc3Cl)on2)CC1 |  | inconclusive [inhibitor, single point]
COc1ccc(N2CCN(C(=O)CCS(=O)(=O)c3ccc(C)cc3)CC2)cc1 |  | active: 25.1 µM
CCCCn1nc(-c2ccccc2)c2nc3ccccc3nc21 |  | inconclusive [inhibitor, single point]
COc1cccc2c1NC(C(=O)O)C1CC=CC21 (stereo not given) |  | active: 7.08 µM
Cc1ccc(S(=O)(=O)N2CCCN(C)CC2)cc1 |  | inconclusive [inhibitor, full curve]

SMILES | activity change, negative = inhibition | Potency
O=C(/C(=C(\[O-])c1ccccc1)[n+]1ccc2ccccc2c1)c1ccc(Cl)cc1 | inactive: -11.1% | 
CCC(C)NC(=O)CCS(=O)(=O)c1ccc2c(c1)n(C)c(=O)c(=O)n2C (stereo not given) |  | inconclusive [inhibitor, partial curve]
Cc1ccc(CNC(=O)c2c(-c3cccc(Br)c3)noc2C)o1 |  | inconclusive [inhibitor, partial curve]
S=C(NCc1cccs1)Nc1cccc(Cl)c1Cl |  | inconclusive [inhibitor, full curve]
C=CCOc1cccc(C2c3c(oc4ccc(F)cc4c3=O)C(=O)N2CCCN2CCOCC2)c1 (stereo not given) |  | inconclusive [inhibitor, full curve]
COc1ccc(NC(=O)CSc2nc(-c3ccccc3)nc3c2Cc2c(CO)cnc(C)c2O3)cc1Cl |  | inconclusive [inhibitor, partial curve]
O=C(O)c1cc(N/N=C2/CC(c3ccccc3)Oc3ccccc32)ccc1Cl (stereo not given) |  | inconclusive [inhibitor, partial curve]
C=CCOc1cccc(C2C(C(=O)c3ccc(C)o3)=C(O)C(=O)N2CCN(C)C)c1 (stereo not given) |  | active: 35.5 µM
O=C(Nc1cc2c(cc1Cl)OCCO2)c1ccco1 | inactive: 3.2% | 
Cc1ccc(-n2c(-c3ccco3)nc3nc4ccccc4nc32)cc1 |  | inconclusive [inhibitor, partial curve]
CCOC(=O)c1cnc(SCC(=O)Nc2nnc(CC)s2)nc1N |  | inconclusive [inhibitor, full curve, poor fit]
CS(=O)(=O)Nc1ccc(C2=NN(C(=O)c3ccco3)C(c3ccco3)C2)cc1 (stereo not given) |  | inconclusive [inhibitor, partial curve]
CCCC(=O)c1ccc(N2CCCC2)c(F)c1 |  | inconclusive [inhibitor, single point]
Cc1cccnc1NC(=O)c1cc2ccccc2oc1=O | inactive: 49% | 
Cc1ccc(S(=O)(=O)N2CCN(C(=O)CN3CCCC3)C2)cc1 |  | inconclusive [inhibitor, partial curve]
O=C1O[C@H]([C@@H](O)CO)C(O)=C1O |  | inconclusive [inhibitor, single point]
CCN1CCN(S(=O)(=O)c2ccc(OC)cc2)CC1 | inactive: -2.93% | 
COc1ccc(Cl)cc1NC(=O)c1c(NCc2ccc(C)o2)sc2c1CCCC2 |  | active: 28.2 µM
Cc1ccc(C(=O)c2coc3c2C(=O)C(=O)c2ccccc2-3)cc1 |  | inconclusive [inhibitor, partial curve]
Cc1ccc(CN(Cc2ccco2)C(=O)c2oc3c(C)c(C)ccc3c2C)cc1 |  | inconclusive [inhibitor, partial curve]
COc1ccc(F)c(CN2CCCC(CNS(=O)(=O)c3cccc4cccnc34)C2)c1 (stereo not given) | inactive: -14.7% | 
COc1cc(OC)cc(C(=O)NCc2ccc3[nH]c(C)cc3c2)c1 |  | inconclusive [inhibitor, partial curve]
